# Laboratory results reported in paper PMC5836133.
# The other results are listed elsewhere or left out. At the low end of the ranking, values are background and their order means little.
# Test system: T1, GST-NbGlk1(82-244)
# T1 sequence: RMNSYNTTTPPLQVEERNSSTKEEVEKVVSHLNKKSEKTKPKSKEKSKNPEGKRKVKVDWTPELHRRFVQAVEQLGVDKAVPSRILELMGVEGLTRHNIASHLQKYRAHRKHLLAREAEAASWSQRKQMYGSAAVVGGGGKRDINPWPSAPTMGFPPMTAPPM
# Assay: protein-binding microarray;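 further: rank-based score ranging −0.5 to +0.5 with E above 0.45 taken as significant binding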
# Conditions: NbGlk1 is a Golden2-like transcription factor of Nicotiana benthamiana; high values mean tight binding; most listed sequences are background and not binding sites; double strand, one strand shown
row,Sequence,binding signal [E-score]
1,AGAAAACC,-0.0632
2,ACCAGGGA,-0.142
3,AACTCCGC,-0.098
4,ACCTCGAG,-0.0958
5,AGTAGACT,-0.046
6,ACTGAAAT,0.278
7,AACTCCCA,-0.242
8,ATCATGTA,0.154
9,ATATGCAC,0.266
10,AGAACGAT,-0.0187
11,AAACTGAC,-0.0843
12,ATTCCAAA,0.17
13,CAAATCGC,0.32
14,ATCAAACG,0.142
15,ACTAGCAA,-0.0452
16,AATCGCGG,0.317
17,AACAAATT,0.129
18,ACCGGGCA,-0.211
19,AAATGATT,0.197
20,ACCGCTAG,-0.121
21,ACATTAAA,0.0476
22,ATCGCCAG,0.142
23,ATAACAAC,0.147
24,ACGATATG,0.193
25,AGTGATTC,0.282

row,Sequence,binding signal [E-score]
1,ATAGCTCA,-0.0823
2,ACTATCCC,-0.0744
3,AAGCGTGC,-0.229
4,ATCGCGGC,0.208
5,AAGGATCC,0.222
6,AACGAAGT,-0.157
7,ATATGATC,0.171
8,ACCATTCC,-0.0305
9,ACGCGTCC,-0.0191
10,CACCGATA,0.256
11,ACCGGCAA,-0.0883
12,AGGTATCA,0.0924
13,AGCAAAGA,-0.00752
14,ACCGATTA,0.164
15,ACGAACAT,-0.0713
16,ACTCGTTG,-0.114
17,ATTCTTGC,0.109
18,AATCTCGA,0.436
19,ATTACGGC,0.278
20,AGAATGCT,-0.256
21,ACAAGCTG,-0.265
22,ATTCACTA,0.0894
23,AAATGATA,0.15
24,ATCATGCC,0.047
25,AAACCGAA,0.125

row,Sequence,binding signal [E-score]
1,ATTCGTTG,0.118
2,ACATATGA,0.0727
3,ACTCTTGA,-0.156
4,ATTGCCTG,0.182
5,ACCGAGCG,-0.121
6,AGAGGTAC,-0.119
7,ACCATCGC,-0.125
8,AGGTACCG,-0.112
9,ATAGCGCG,0.117
10,ACATGCTA,0.0278
11,ACGAGGAA,-0.00457
12,CACAATAC,0.146
13,CACTAGCA,-0.182
14,AACACTCT,-0.159
15,AGACCGTA,0.0163
16,ATGATTGC,0.33
17,ATTCACCC,0.0183
18,ATCTTCTA,0.289
19,ACCGGCGA,-0.038
20,AGCACCAA,-0.151
21,ACCCTGAC,-0.131
22,ATGGTAGG,-0.0897
23,AGGCCGGC,-0.25
24,ATTACCTA,0.225
25,AGGAATGC,-0.127

row,Sequence,binding signal [E-score]
1,ACTATGCG,0.0378
2,AACTATCT,0.0149
3,CACAATGA,-0.0475
4,AGCATTTG,-0.0443
5,AAAGCGCC,-0.212
6,CACGACCA,-0.189
7,AGAGCGGA,-0.0645
8,ATGTTGCC,-0.0505
9,AATGGTCC,-0.0798
10,AGAGATGG,-0.127
11,AAGGGCGT,-0.251
12,AACTGCTA,-0.0585
13,AGGGTACT,-0.0881
14,AAAGCTCT,-0.22
15,AAGTTGGG,-0.11
16,ATAAGACA,0.122
17,AGCGCGAA,0.0125
18,AATCCACG,0.406
19,CAACGAGC,-0.197
20,ATATTAAC,0.132
21,AACACTGT,0.0152
22,ACTACGGA,0.0643
23,ACCGCTGG,-0.183
24,ACTGGTAA,0.172
25,ATACCAAG,-0.0789

row,Sequence,binding signal [E-score]
1,ACGTCTGG,-0.0875
2,ACGCCCCC,-0.31
3,AAAGGCGT,-0.13
4,ATCGACGC,0.127
5,ACTACTAT,0.156
6,ACTGACCC,-0.251
7,AATACGGC,0.0978
8,AGGCAGGC,-0.249
9,AGTTTGGA,0.14
10,ATTCACGA,0.0268
11,AGGTGATG,-0.198
12,ACACAATG,-0.0803
13,ATCCTTTC,0.151
14,ATTGCTAG,0.16
15,ACTACGAG,-0.0309
16,CAACAGCA,-0.117
17,ACAAAATC,0.458
18,CAGACATC,0.012
19,ATTTCGGG,0.27
20,CACTACTC,-0.0916
21,AGACAGAA,-0.0937
22,ATCCTAAC,0.254
23,ATTCGGCA,0.197
24,ACGGTTGA,-0.115
25,AACGTACT,-0.0379

row,Sequence,binding signal [E-score]
1,AAGTTCTG,-0.0105
2,ACTGTTCC,-0.083
3,CAAGCTTC,-0.0967
4,CAATAAGA,-0.00121
5,ACGGGTGA,-0.137
6,AGCTCACG,-0.156
7,AACTCCTC,0.00783
8,ATCCATCC,0.17
9,CACCTGTA,0.0667
10,ACCTCACA,-0.0681
11,AAATATTA,0.313
12,ACTAACTA,0.134
13,AGTATTTC,0.148
14,AACTTTCC,0.0335
15,ATGGCCTC,-0.313
16,ACGTCGAA,0.0282
17,AGTGACAC,-0.122
18,AAATTTGA,0.132
19,AACATTAC,0.0383
20,ACCCAGTC,-0.166
21,ACCGGCTA,-0.278
22,AGTGAAAC,-0.162
23,ATGCGATC,0.363
24,AGTTCTTG,-0.0759
25,ATCTAGGG,0.208

row,Sequence,binding signal [E-score]
1,AGAGAACT,-0.0176
2,ACAAGAGA,0.277
3,ATGGGAGG,-0.179
4,AAGCATCT,-0.0646
5,AAGCCAAC,-0.189
6,ATCTTTGA,0.318
7,CAAGAGAG,-0.124
8,AACTGACA,-0.106
9,AGGAACTG,-0.105
10,AGGTTAAA,-0.0304
11,AGTCGGTG,-0.134
12,ACATCGCC,-0.147
13,CACCATAG,-0.0495
14,AACAGCGC,-0.0469
15,AGGCGCCC,-0.288
16,CAAAGGCC,-0.318
17,AATTATTC,0.069
18,ACACCTGG,-0.206
19,CAAGCATA,0.0364
20,CAGCCGGA,-0.109
21,AACATCAC,0.00231
22,AGTTGCCC,-0.165
23,ATGGTAAA,0.106
24,ACATTTTA,0.133
25,AATTAAGT,0.127

row,Sequence,binding signal [E-score]
1,AGTCTCTA,-0.139
2,AAGAGAAG,-0.0779
3,ACAAGCCT,-0.0884
4,AGGCAGCC,-0.134
5,ACCAACGG,-0.181
6,ACCAATTC,-0.00393
7,ATAATAAT,0.197
8,AAAGTGCC,-0.132
9,ACGACCGC,-0.267
10,AATGACGT,0.0552
11,AGGCGAGG,-0.229
12,CACCTACA,-0.0824
13,ATAAAAAT,0.292
14,ATTATCGA,0.108
15,ACGAGTGG,-0.0745
16,ATGGAACC,-0.162
17,ATTGACGG,-0.0847
18,AAGCAAGT,0.0212
19,AATAATGG,0.166
20,AACTCTCA,-0.0697
21,AGACGCCC,-0.354
22,AGGGCGAT,0.134
23,AATTCTAT,0.22
24,AACGCACG,-0.192
25,AAGAATTG,-0.042

row,Sequence,binding signal [E-score]
1,AATTTTCT,0.243
2,ATTATCTG,0.286
3,ACATGTGA,0.201
4,AACACTGA,0.00175
5,AGACTAAC,-0.189
6,ACGTGGCA,-0.183
7,AGCGCGCA,0.0458
8,ACTTTCGG,-0.0965
9,AAGAGGAA,-0.0777
10,AGACCCTA,-0.205
11,ACAGCAGG,-0.184
12,ATCTGACC,0.234
13,ACGCAATA,0.282
14,AGTAAACG,0.0905
15,ACGATATC,0.444
16,CAAGTCTA,-0.182
17,AAGGCACA,-0.228
18,ACTCCTGA,-0.0405
19,AAGGACTT,-0.112
20,ATTCCTTA,0.228
21,ACGTGAGT,-0.0776
22,AGTGCCGA,-0.0181
23,ATCGCGAA,0.323
24,AAACTCGG,-0.0199
25,ACCCCGAC,-0.205

row,Sequence,binding signal [E-score]
1,AAAACCGT,0.0125
2,AATCTCGC,0.411
3,ATCTCTGA,0.269
4,ATGTTTGC,-0.19
5,AGGATGAG,0.0489
6,CAATCATG,0.174
7,AGATAAAG,-0.174
8,ACCCCGGA,-0.0849
9,ATTGGTAC,0.134
10,AACAGTCA,-0.0215
11,AGCATTAC,-0.0277
12,ACTGGGCG,-0.258
13,ATAACAAT,0.136
14,AGACACCA,-0.0759
15,AAGTCAAA,-0.0854
16,AGTAACCG,-0.146
17,ACTCCAGA,-0.121
18,ATTTCAGG,0.159
19,ATTAGGGG,-0.0741
20,AGATACCT,0.216
21,ATTGAAAC,-0.0966
22,ATCAACGA,0.211
23,ATGGGGTC,-0.291
24,ACGCCCAA,-0.0866
25,ATGGAGAA,-0.0331

row,Sequence,binding signal [E-score]
1,AGAAGTCG,-0.124
2,AAACTCTA,-0.1
3,AAGAAACC,-0.0252
4,ACACGGTC,-0.291
5,AGTATGTG,0.0648
6,AGGCTCGG,-0.159
7,ATGCCTAC,0.0371
8,AAAGGCTT,-0.133
9,ATGAGTGC,-0.0499
10,AATGGGTC,-0.214
11,ATTTGGAC,0.119
12,ATGCTTTC,-0.0199
13,AAACACTA,0.184
14,ACCTATAG,0.000693
15,ACAGCTGA,-0.00258
16,AAGCTCTA,-0.197
17,ATTAGGTA,0.136
18,ACGTCAAG,0.0656
19,AGCTTTAC,-0.0365
20,ACATTCAC,-0.0115
21,CAAATTCC,0.158
22,AACGGAAA,0.101
23,ACTCTAAG,-0.237
24,AGAGCGTG,-0.187
25,CAGCGGCC,-0.339

row,Sequence,binding signal [E-score]
1,AAACATTG,-0.0364
2,AATCACAA,0.346
3,ACTTCCGA,0.021
4,AGAGACAC,-0.134
5,CAAGGACC,-0.274
6,AATCTGAT,0.414
7,ACGCACAT,0.122
8,ACTTTTCA,-0.0467
9,ACTCTACA,0.0504
10,ATCCTCAC,0.142
11,CAAGCTCC,-0.236
12,ACTAACCA,-0.122
13,ACATCTGA,0.0862
14,ATCGCTGC,0.148
15,AAGCTATC,-0.00396
16,AGACAGCG,-0.15
17,AATAGAAT,0.256
18,ACCCAACT,-0.211
19,AATTGGCC,-0.175
20,AGATACCG,0.364
21,AGCATTTC,-0.0542
22,CAGAAGGA,-0.129
23,ATTTCAAG,0.23
24,ATAATGGA,0.184
25,CAGATGCG,0.013

row,Sequence,binding signal [E-score]
1,ATAGTTTG,0.0629
2,AATGTGCT,-0.106
3,AGTTCCAA,-0.0756
4,ACTTGGGC,-0.27
5,AAGGCTTG,-0.171
6,ATCCAAAC,0.241
7,ATTTATCC,0.0354
8,CACAGTTC,-0.0236
9,CAGATTAC,0.477
10,ACGGAGAT,0.324
11,AGAGAAGG,-0.228
12,ACTGTATG,-0.0811
13,ACGGGCTG,-0.264
14,ATATAATA,0.201
15,AGATGGAA,-0.198
16,ATCCGAAT,0.333
17,AACAGGGC,-0.206
18,CAAAGTAC,-0.0842
19,CAATGAAC,-0.149
20,ATACATAC,0.139
21,AGCGACGG,-0.248
22,AAGTTAGC,-0.0457
23,ACTATAAG,-0.0357
24,CAATCATC,0.106
25,AATTCTCA,0.243

row,Sequence,binding signal [E-score]
1,AGGGCGGA,0.0685
2,ACGTGTGA,-0.059
3,ACCTACTC,-0.139
4,ATTTAAAG,0.222
5,ATCACCGG,0.0837
6,AGTACGTG,0.049
7,AAGAAGGT,-0.17
8,AGAAACGC,-0.0257
9,CACACTAC,-0.0284
10,ATCTTTAC,0.23
11,AGTTTCCC,-0.105
12,ACGATTTA,0.172
13,AATAATTA,0.146
14,AAACTACC,-0.0432
15,ACCAGTAG,-0.0836
16,ATCCAAGG,-0.00438
17,ATGTGAAA,0.166
18,AAGATTCG,0.41
19,AGAAGTTG,-0.00793
